Some of the results follow. The energies were worked out here from pooled read counts, against the library average; single values are noisy.
The sequences below were run against T1, Pho4 (S. cerevisiae) (UniProt P07270) (assay: relative binding free energy (BET-seq); higher = weaker binding). Details: reference: library average.
T1 sequence: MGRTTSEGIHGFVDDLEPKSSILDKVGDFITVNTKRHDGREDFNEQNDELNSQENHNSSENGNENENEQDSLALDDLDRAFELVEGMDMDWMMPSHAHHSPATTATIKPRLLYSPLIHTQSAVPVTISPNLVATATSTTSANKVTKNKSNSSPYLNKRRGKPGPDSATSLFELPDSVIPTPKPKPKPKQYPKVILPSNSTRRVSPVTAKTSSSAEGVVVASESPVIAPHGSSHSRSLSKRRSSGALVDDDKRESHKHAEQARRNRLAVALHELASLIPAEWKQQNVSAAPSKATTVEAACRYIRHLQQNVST

Sequence | relative binding free energy [kcal/mol]
AGGGGCACGTGGGCAC | -0.2
TTCGGCACGTGTAAAG | 0.22
GGCGGCACGTGCTGTG | -0.08
CTTAACACGTGGGATT | -0.05
CATTTCACGTGCGGGG | 0.32
AAGAGCACGTGGGTAG | -0.1
GAGTGCACGTGGTCTA | -0.06
AGTATCACGTGGCAGG | -0.08
GCTTTCACGTGTGGTT | 0.31
TGGGACACGTGGATTT | 0.21
AGGGTCACGTGCATGT | 0.12
CGTTTCACGTGGAGTT | 0.37
AGGGTCACGTGAAGTC | 0.32
TTGCCCACGTGTATGG | -0.02
TATAGCACGTGAGTCG | 0.23
GTGGTCACGTGTAATG | 0.14
CGGAGCACGTGTATGT | -0.16
TACATCACGTGATTGG | 0.18
GAGTTCACGTGTTTCG | 0.38
AGTGACACGTGTAGGC | 0
TTTGGCACGTGCTTAT | -0.02
GTTGGCACGTGAGTTG | 0.12
GTTATCACGTGGCGTA | 0.22
AGGTTCACGTGAGGAA | 0.3
GTGGGCACGTGAAGTG | 0.29
GTTGGCACGTGAAAGT | 0.26

Sequence | relative binding free energy [kcal/mol]
CGGTACACGTGGTGTA | 0.08
TGGGACACGTGGATTA | 0.11
GCATTCACGTGTGTAG | 0.31
TTCGGCACGTGGGATA | -0.18
GAAGGCACGTGGGTAT | -0.06
CGTGACACGTGTGCGT | -0.17
TTGTTCACGTGATTGG | 0.44
TTCTTCACGTGGTATT | 0.22
AATTGCACGTGGTGCG | 0.03
GTTTTCACGTGCGTGG | 0.2
TTTTCCACGTGTGGAG | 0.05
TGGTTCACGTGACGAA | 0.47
AGTTGCACGTGTTATT | 0.04
GACGGCACGTGAAGTG | 0.33
TGGAGCACGTGTTAGA | -0.07
GCTTTCACGTGGCGGT | 0.33
TTGGGCACGTGGTGAC | -0.06
ATTAGCACGTGGTGTT | -0.19
TTGTGCACGTGGTTAG | -0.04
GCCTGCACGTGGTGAG | 0.06
TGTTCCACGTGCGGGG | -0.03
GTTCGCACGTGGTTCG | -0.08
ATTGGCACGTGTTCGT | -0.1
TTGGACACGTGGAAGG | 0.11
TTCGTCACGTGTGGCA | 0.09
TTAAGCACGTGTTCTG | -0.02

Sequence | relative binding free energy [kcal/mol]
TGATGCACGTGAGGAA | 0.19
GTCGTCACGTGTAGTA | 0.11
AGTCTCACGTGGGTTT | 0.21
AGGCTCACGTGGGCTG | 0.03
AGTTCCACGTGTGTGC | 0.16
TTGAACACGTGGGGCA | -0.21
GGTGTCACGTGTAAGT | 0.2
TCGGTCACGTGCGGAG | 0.12
AGTAGCACGTGGAGGG | -0.15
TTGAACACGTGGACTG | 0.14
GGTAGCACGTGGGTGT | -0.12
GAGTTCACGTGGAGGC | 0.21
AGAGCCACGTGGTGTA | -0.19
GGAGTCACGTGCTGTA | 0.08
GATTTCACGTGTAATA | 0.37
AGGACCACGTGGGGTG | -0.35
TTAGTCACGTGGCGCG | 0.13
GTCGGCACGTGTGGAG | -0.03
TGAGGCACGTGATTTA | 0.01
GTGGACACGTGGCGTC | -0.03
AAGGTCACGTGGTGAA | 0.05
GTTAGCACGTGTGGCC | 0.08
AGTCACACGTGGTGGC | 0.07
GAAATCACGTGGTGAG | 0.32
GGGTACACGTGCGTGT | 0
TGTCTCACGTGTTAAG | 0.27

Sequence | relative binding free energy [kcal/mol]
GGATGCACGTGATTTG | 0.1
GGGAGCACGTGGTCCG | -0.08
TGCTTCACGTGTTATA | 0.17
CGGCTCACGTGGTTTT | 0.24
GCTCGCACGTGTGGGG | 0
GGTCACACGTGTTAAT | 0.31
GAAATCACGTGGTGGC | 0.31
CTTATCACGTGAAGGG | 0.32
TCCGGCACGTGTGGGA | -0.02
TGGGGCACGTGTAAGG | 0.09
CGTGGCACGTGGGTGA | -0.21
TTTACCACGTGGGATT | -0.2
GAGAGCACGTGTGGTC | -0.07
ATAGTCACGTGCTGTA | -0.03
TGTACCACGTGGTCAG | 0.08
AACGTCACGTGGGTGT | 0
ATTGTCACGTGTATAG | 0.02
GATGTCACGTGAGGGG | 0.3
TTGTTCACGTGAGGGT | 0.43
TTTAACACGTGGTAAT | -0.18
TTTAGCACGTGCTGTG | -0.14
GTTGACACGTGGGGAA | -0.01
TATGACACGTGAATTT | 0.21
GCTAACACGTGGTGTT | 0.09
TCGGGCACGTGCGGAT | -0.07
TAAAACACGTGTGATT | 0.19

Sequence | relative binding free energy [kcal/mol]
TTCTGCACGTGTAGGC | 0
TTCGTCACGTGGTAGT | 0.04
CGGAGCACGTGGTCGG | -0.21
GATTACACGTGGCGGT | -0.02
ATATGCACGTGATGGA | 0.18
TTAAGCACGTGGAGTC | -0.08
GAGTGCACGTGACGTG | 0.14
GAGATCACGTGGGGAT | 0.21
TTTAGCACGTGTTAGG | -0.12
GTGTCCACGTGGGAAG | 0.03
TGTTGCACGTGGGGAT | -0.17
TGGTCCACGTGATGTT | 0.19
ATAAGCACGTGTGAAT | -0.06
GGGCTCACGTGTGGGC | 0.27
GTGTCCACGTGATAGG | 0.36
GGGTGCACGTGACGGT | 0.16
TGTTACACGTGACGTG | 0.16
TTATACACGTGTGTCT | 0.09
TTTATCACGTGGATGA | 0.22
ATGGACACGTGTGAAA | 0.14
GTCTACACGTGTTTGA | 0.19
TGTTACACGTGGTGAT | 0.15
TGGTTCACGTGGTTAA | 0.41
TGGATCACGTGGGTAT | 0.11
TTAGACACGTGGTAAT | 0.07
TTAATCACGTGCTAGG | 0.08

Sequence | relative binding free energy [kcal/mol]
AAGTTCACGTGCGGGC | 0.3
TTGAGCACGTGAGGCA | 0.14
TTTTTCACGTGGAGTG | 0.32
AGTTGCACGTGGAGCT | 0
GAGATCACGTGGTGAG | 0.22
TTTGCCACGTGGTGTC | -0.18
GGGTTCACGTGGCTGT | 0.24
CGGTACACGTGGTTGC | 0.02
TCGCGCACGTGGTTGT | -0.1
GGATTCACGTGGAGTG | 0.23
TGTTGCACGTGAGTCT | 0.14
TAGGGCACGTGAGAGC | 0.04
GGTTACACGTGCGGGC | 0.11
GGGTGCACGTGCGCGG | -0.12
GTGGGCACGTGAAGAT | 0.18
AGGGTCACGTGTCGTA | 0.25
TATTTCACGTGTGTTG | 0.28
AGGGACACGTGTGAGT | 0.14
AAGTTCACGTGATCAT | 0.47
TCATTCACGTGTCGTG | 0.31
GTTTGCACGTGCCGGG | -0.05
GATGTCACGTGTTAGA | 0.11
CGTATCACGTGGTAGG | 0.02
TCATGCACGTGGGGCT | -0.22
CTTTTCACGTGAGTTA | 0.4
GGCGGCACGTGTTTGA | 0.07

Sequence | relative binding free energy [kcal/mol]
AGGGTCACGTGTGTTC | 0.06
AGTTGCACGTGTGTTT | 0.06
TATGTCACGTGTGGGT | 0.12
GGGGTCACGTGAGGTC | 0.39
ATCGTCACGTGGTGCT | -0.06
ATCCGCACGTGAGGTT | 0.26
GGTCACACGTGGGGGG | -0.06
ATTACCACGTGGGGGT | -0.3
AGCTGCACGTGTTGTG | -0.01
TGTGGCACGTGAATTA | 0.17
GTCGTCACGTGTCGTG | 0.07
CATTTCACGTGGTTGT | 0.33
TAATCCACGTGTTTGT | -0.06
ATAGGCACGTGTTGAT | -0.23
TATTGCACGTGCGTCA | -0.06
AAAGGCACGTGGTCTT | -0.18
CACTTCACGTGTGTGG | 0.15
CGGGCCACGTGGGAGT | -0.16
TGGGACACGTGGGGCA | -0.06
TGGCACACGTGTGATT | 0.16
GTGAGCACGTGTCCGG | -0.05
GTTGTCACGTGTGCAA | 0.11
TGGTTCACGTGACGGC | 0.24
GCTTGCACGTGTAAGG | 0.12
TATAACACGTGGGTTG | -0.14
GGGGCCACGTGGGTGG | -0.13

Sequence | relative binding free energy [kcal/mol]
GTTAGCACGTGATGTC | 0.31
TTGAACACGTGTCGTT | 0.04
GGTGGCACGTGTGCGA | -0.13
CGTATCACGTGAGGTG | 0.29
GTTATCACGTGTGGAG | 0.06
ATATACACGTGTTATA | 0
GCCGTCACGTGGGGGT | 0.07
TTATCCACGTGTGGGT | -0.12
GAAGCCACGTGGTGGG | -0.08
GTGATCACGTGAATTG | 0.29
GTGGTCACGTGGGGTC | 0.05
AGGGCCACGTGTTGTT | -0.08
CTATACACGTGAGGTG | 0.32
GAATACACGTGGTGGG | 0.1
CAAAGCACGTGTTGTG | -0.11
TGTACCACGTGTATAG | -0.08
GGAGTCACGTGGAAGT | 0.28
AAGCTCACGTGAGGTG | 0.42
ACAGTCACGTGTTGTT | 0.08
GGAATCACGTGGGTTC | 0.06
AGCAGCACGTGTGCGT | 0.07
TAGAGCACGTGTATGT | -0.25
ATGGGCACGTGGAGTG | -0.09
AGGTGCACGTGTGGGG | 0.06
ACGTTCACGTGCGGTT | 0.2
AGGTACACGTGCTTGG | 0

Sequence | relative binding free energy [kcal/mol]
ATTTCCACGTGGGGGT | -0.13
GTGCTCACGTGCGTGT | 0.04
AGGGACACGTGAGTAT | 0.35
AATTGCACGTGGTTTA | -0.08
TTTCTCACGTGTTTGA | 0.31
AGAATCACGTGGTTAG | 0.17
TTAAGCACGTGAGTTA | -0.02
CGGTGCACGTGATGGC | 0.09
TGATGCACGTGAAAGG | 0.22
GGGGGCACGTGAGCCT | 0.2
CAAGGCACGTGCGGGT | -0.15
TGATCCACGTGTATGG | 0
AAGTACACGTGATATT | 0.21
CGGGGCACGTGCCGGT | -0.27
GTCGGCACGTGGTAAG | -0.09
ATCTTCACGTGGAATT | 0.31
GGTTACACGTGCTAGT | 0.11
GTCAGCACGTGGCTGT | -0.05
ATTTACACGTGGTCAT | -0.07
TTGTTCACGTGTAACG | 0.33
TGGCGCACGTGGTCAT | -0.19
ATGGGCACGTGTACAT | -0.02
